From PubChem BioAssay AID1508624 (National Center for Advancing Translational Sciences (NCATS), 2021) come the findings set out here.

The structures appear in SMILES notation. Hit rate of the full screen: of about 48,000 compounds, about 120 (0.25%) were called active. Inconclusive results (about 4%) are left out. The call rests on the fitted dose curve; in most records, active means well fitted activation curve with a large enough effect; inconclusive means small, poorly fitted or top-dose-only effect, or another doubt; inactive means no such curve, though single readings can be large or run the other way. Some of the results follow.

A short description of this test: Primary qHTS for Identification of Small Molecule Activators of Huntingtin-Antisense Promoter Activity. Further: nearly all actives have a fitted effect of over 55% in size. The conditions noted are these: HEK293 HTT-AS promoter firefly luciferase reporter, 24 h; series mostly up to 57.5 µM; activity change, positive = activation: at the top concentration. In a few lines: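 HEK293 Fluc reporter, 2,500 cells/well, 24 h pre-culture; cpds up to 57.5 uM final, 24 h 37 degrees C; Dual-Glo, 10 min RT; normalized vehicle = 0%, zero RLU = -100%.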
(Quantitative high-throughput screening tests each substance at several concentrations.)
In the case of `CCOc1ccc(CNC(=O)c2ccc(CS(=O)c3ccccc3)o2)cc1` (centres undefined), the “activity change, positive = activation” value is inactive: -14%.

`CS(=O)(=O)N1CCc2cc(C(=O)N3CCN(c4ccc(F)cc4)CC3)ccc21`: the “activity change, positive = activation” value is inactive: -8.58%.

In the case of `Cc1ccc(-n2c(SCC(=O)Nc3cccc(Cl)c3)nc3n[nH]c(C)c3c2=N)cc1`, the “activity change, positive = activation” value was inactive: -30.5%.

Consider `Cc1ccc(N2CC(NC(=O)c3ccc4c(c3)OCO4)CC2=O)cc1` (centres undefined), for which the “activity change, positive = activation” value was inactive: -10.8%.

As to `CC(=O)N1CCCc2ccc(NS(=O)(=O)c3ccc(F)cc3F)cc21`, the “activity change, positive = activation” value is inactive: -1.31%.

Regarding `Cc1ccccc1NC(=O)Cn1nc(-c2ccc(F)cc2)c2cnc3ccccc3c21`, the “activity change, positive = activation” value was inactive: -8.73%.

In the case of `Cc1cccc(C(=O)Nc2nc(-c3ccc(Br)cc3)ns2)c1`, the “activity change, positive = activation” value was inactive: 5.84%.

Take `COc1cc(C(=O)N2CCc3c([nH]c4ccccc34)C2c2ccccc2)cc(OC)c1OC` (centres undefined): the “activity change, positive = activation” value was inactive: -40.9%.

As to `CN=C(NC#N)NCCSCc1csc(N=C(N)N)n1`, the “activity change, positive = activation” value was inactive: -7.71%.

As to `CCOC(=O)C1CCN(C(=O)Cn2ncc3c([nH]c4ccc(C)cc43)c2=O)CC1`, the “activity change, positive = activation” value was inactive: -2.87%.

Turning to `CC(=O)N1CCC2(CC1)OC(=O)C(C)=C2C(=O)Nc1ccccc1C(F)(F)F`, the “activity change, positive = activation” value is inactive: -11.6%.

Consider `Cc1cccc(N(CC(=O)NCCSc2ccc(Cl)cc2)S(=O)(=O)c2ccccc2)c1C`, for which the “activity change, positive = activation” value was inactive: -26.6%.

Regarding `CCCC(=O)OC[C@@H](OC(=O)CCC)[C@@H](OC(=O)CCC)[C@H](Cn1c2nc(=O)[nH]c(=O)c-2nc2cc(C)c(C)cc21)OC(=O)CCC`, the “activity change, positive = activation” value is inactive: -16%.

Turning to `CN(C)CCN1C(=O)c2ccccc2N(C)c2ccccc21`, the “activity change, positive = activation” value is inactive: -2.32%.

On to `CCCC(=O)O[C@]1(C(=O)COC(=O)CC)CC[C@H]2[C@@H]3CCC4=CC(=O)CC[C@]4(C)[C@H]3[C@@H](O)C[C@@]21C`, for which the “activity change, positive = activation” value was inactive: -3.45% [at 25.1 µM, percent change from vehicle, -100% = no light].

`CC(S)C(=O)NCC(=O)O` (centres undefined): the activity change, positive = activation result was “inactive”.

For the molecule `COc1ccc(OC)c(C(O)CNC(=O)CN)c1` (centres undefined), the “activity change, positive = activation” value is inactive: 3.31%.

Take `CSc1ncc(C(=O)N2CCN(c3ccc(F)cc3)CC2)c(C)n1`: the “activity change, positive = activation” value is inactive: -8.02%.

With `Cc1ccc(C)c(N2CCN(C(=O)c3cc(S(=O)(=O)N4CCCC4)cn3C)CC2)c1`, the “activity change, positive = activation” value was inactive: -21.8%.

For the molecule `COc1cccc(-c2nn(C)c3sc(C(=O)N4CCN(c5cccc(C)c5)C(C)C4)cc23)c1` (centres undefined), the “activity change, positive = activation” value was inactive: -34.9%.

As for `COc1ccccc1CCNC(=O)Cn1ccc2cc(S(=O)(=O)N3CCCCCC3)ccc21`, the “activity change, positive = activation” value is inactive: -35.7%.

In the case of `CCc1nnc(SCc2nc(-c3ccc(OC)cc3)oc2C)c2cc3sccc3n12`, the “activity change, positive = activation” value is inactive: -10.9%.

In the case of `CCOC(=O)C1CCC(CN(Cc2c(Cl)cccc2Cl)S(=O)(=O)c2ccc(F)cc2)CC1` (centres undefined), the “activity change, positive = activation” value was inactive: -22.9%.

As to `COc1ccc(N2CCN(C(=O)c3ccc4c(c3)CCN4S(C)(=O)=O)CC2)cc1`, the “activity change, positive = activation” value is inactive: 18.4%.

In the case of `CCSc1nc2c(c(=O)[nH]c(=O)n2C)n1CC(O)COc1ccc(Cl)cc1` (centres undefined), the “activity change, positive = activation” value is inactive: -19.3%.

For `Cc1ccc(C)c(S(=O)(=O)c2nnn3c2nc(Nc2ccc(F)c(Cl)c2)c2sccc23)c1`, the “activity change, positive = activation” value is inactive: -10.4%.

`Cc1c(Cl)cccc1NC(=O)Cn1nc(C)c2sc3ccccc3c2c1=O`: the “activity change, positive = activation” value is inactive: 3.71%.

Turning to `Cc1nc(SCC(=O)Nc2ccc(Br)cc2)[nH]c(=O)c1Cc1ccccc1`, the “activity change, positive = activation” value is inactive: -32.7%.

In the case of `Cc1ccc(S(=O)(=O)CCC(=O)N2CCN(c3nc4c(C)c(Cl)ccc4s3)CC2)cc1`, the “activity change, positive = activation” value is inactive: -14.7%.

In the case of `Cc1ccc2c(c1)N(C(=O)N1CCC(C(=O)NCc3ccco3)CC1)CC(C)O2` (centres undefined), the “activity change, positive = activation” value is inactive: -8.91%.

For the molecule `CCCCOC(=O)c1ccc(NC(=O)Cc2coc3ccc(C(C)C)cc23)cc1`, the “activity change, positive = activation” value was inactive: -82.2%.

Consider `CCc1ccc(OCC(=O)NCc2nc(-c3cccc(C)c3)no2)c(Br)c1`, for which the “activity change, positive = activation” value was inactive: -18.2%.

`COc1ccc(CCN2C(=O)N(c3ccc(F)cc3)C(=O)C2CC(=O)Nc2ccc(F)c(F)c2)cc1` (centres undefined): the “activity change, positive = activation” value is inactive: -6.51%.

Take `CCOc1ccc(N(CC(=O)NCc2ccc(Cl)cc2)S(=O)(=O)c2c(C)noc2C)cc1`: the “activity change, positive = activation” value was inactive: -5.57%.

For `Cc1ccc(C(=O)Nc2ccc(OCc3cc(=O)n4c5c(sc4n3)CCCC5)cc2)cc1`, the “activity change, positive = activation” value is inactive: -4.39%.

For `CC(C)[N+]1(C)[C@@H]2CC[C@H]1CC(OC(=O)C(CO)c1ccccc1)C2` (some centres undefined), the “activity change, positive = activation” value is inactive: -21.6%.

For the molecule `Cc1c(NC(=O)c2ccc(N3CCC(C)CC3)c([N+](=O)[O-])c2)cccc1-c1nc2ccccc2o1`, the “activity change, positive = activation” value was inactive: -1.26%.

In the case of `Cc1cccc(N2CCN(C(=O)c3oc(=O)c4ccccc4c3-c3ccccc3)CC2)c1C`, the “activity change, positive = activation” value was inactive: -6.01%.

As for `Cc1cc(NC(=O)Nc2csc3c2CCCC3)ccc1Br`, the “activity change, positive = activation” value is inactive: -82.2%.

With `Cc1ccccc1NC(=O)CN1C(=O)CCn2nc(-c3cccn3C)cc21`, the “activity change, positive = activation” value is inactive: -7.69%.

Consider `Cc1sc2c(c1C)c(=O)n(-c1cccc(C(F)(F)F)c1)c(=O)n2Cc1ccccc1C#N`, for which the “activity change, positive = activation” value was inactive: 13.4%.

With `CCCCn1c(-c2ccc(C)cc2)c(C)n2c3c(=O)n(C)c(=O)n(C)c3nc12`, the “activity change, positive = activation” value was inactive: -1.61%.

`Cc1ccccc1-c1noc(CSc2nnc(-c3ccncc3)n2-c2ccc(F)cc2)n1`: the “activity change, positive = activation” value was inactive: -22.1%.

With `Cc1ccc(OCCCCn2c(CCNC(=O)C(C)(C)C)nc3ccccc32)cc1`, the “activity change, positive = activation” value was inactive: -26.8%.

In the case of `CCOc1ccc(N(CC)C(=O)CSc2n[nH]c(-c3ccccc3)n2)cc1`, the “activity change, positive = activation” value was inactive: -37%.

Turning to `Cc1ncc(CO)c2c1Oc1nc(-c3ccccc3)nc(SCC(=O)Nc3cccc(C(F)(F)F)c3)c1C2`, the “activity change, positive = activation” value was inactive: -19.2%.

Take `CCn1cc(C(=O)NCc2ccccc2Cl)c(=O)c2cc(S(=O)(=O)N3CCCCC3)ccc21`: the activity change, positive = activation was inactive: 10.6% [at 11.5 µM, percent change from vehicle, -100% = no light].

Regarding `O=C(CSc1n[nH]c(-c2ccccc2Cl)n1)N1CCN(c2ccccc2F)CC1`, the “activity change, positive = activation” value was inactive: -22.9%.

On to `O=C(Cc1ccccc1)Nc1cccc(-c2nc3cccnc3s2)c1`, for which the “activity change, positive = activation” value was inactive: 13.1%.

In the case of `COc1ccc(-c2coc3c2c(C)cc2oc(=O)cc(C)c23)cc1`, the “activity change, positive = activation” value is inactive: -7.07%.

For the molecule `Cc1oc(-c2ccc(C(=O)NCc3ccccc3)cc2)nc1CS(=O)(=O)c1ccccc1`, the “activity change, positive = activation” value is inactive: 0%.

In the case of `O=C(NC1CCCC1)c1ccc2c(c1)N(Cc1ccccc1F)C(=O)c1ccccc1S2`, the “activity change, positive = activation” value is inactive: -19.3%.

As to `CCOC(=O)c1c(C)oc2nc(C)nc(NC(C)c3ccccc3)c12` (centres undefined), the “activity change, positive = activation” value is inactive: -20.6%.

For `CC1=C(C(=O)OCc2ccc(C)cc2)C(c2ccccc2Cl)CC(=O)N1` (centres undefined), the “activity change, positive = activation” value is inactive: -45%.

Take `CNC[C@H](O)c1ccc(O)c(O)c1`: the activity change, positive = activation result was “inactive”.

As for `Cc1cccc(OCC(=O)Nc2ccc3c(c2)nc(CCNC(=O)c2ccco2)n3C)c1`, the “activity change, positive = activation” value was inactive: 2.27%.

In the case of `Cc1nc2c3ccccc3nc(NNC(=O)CCC(=O)N3CCN(c4ccccc4)CC3)n2n1`, the “activity change, positive = activation” value is inactive: -17.4%.

As for `Cc1cc(C)cc(NC(=O)c2sc3nc(-c4cc5ccccc5oc4=O)[nH]c(=O)c3c2C)c1`, the “activity change, positive = activation” value was inactive: -2.58%.

In the case of `COC(=O)c1c(C)sc(-c2c(-c3cccc(Cl)c3)[nH]c3c2c(=O)[nH]c(=O)n3C)c1O`, the “activity change, positive = activation” value was inactive: -15.2%.
